Assay results reported in PubChem BioAssay AID1240 (Sanford-Burnham Center for Chemical Genomics, 2008).
The campaign covered roughly 50,000 compounds. About 800 (1.6%) showed an effect of 50% or more. The list shows a part of the results.

Molecular target: Bcl-2-like protein 10 (Homo sapiens) (UniProt Q9HD36)
Test: Phenotype converters, Bcl-B/TR3 peptide binding displacement, primary biochemical FP (AID 1240);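 note: 0% = Bcl-B with tracer peptide and DMSO and 100% = tracer peptide lacking Bcl-B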
Settings: GST-Bcl-B / FITC-TR3 peptide fluorescence polarization; stronger effect = higher value; compound at 3.75 mg/L

UniProt Q9HD36, sequence (Q9HD36 whole entry, looked up): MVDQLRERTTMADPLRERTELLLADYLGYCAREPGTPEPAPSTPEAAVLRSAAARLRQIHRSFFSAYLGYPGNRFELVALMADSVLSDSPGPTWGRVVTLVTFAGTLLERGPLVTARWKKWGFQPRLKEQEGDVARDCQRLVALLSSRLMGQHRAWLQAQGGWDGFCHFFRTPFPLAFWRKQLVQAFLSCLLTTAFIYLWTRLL

Structure (SMILES)	displacement [%]
CCc1ccc(N2C(=O)/C(=C/c3cc(C)n(-c4cccnc4)c3C)C(=O)NC2=S)cc1	12.1
Fc1ccccc1N1CC(c2ccccc2)C(c2cccs2)=N1 (centres undefined)	-7.4
COc1ccc2[nH]cc(CCN=C3SCC(=O)N3C)c2c1	-5.8
Oc1ccc(/C=N/Nc2ncc(Br)cn2)c(O)c1	-9.3
O=[N+]([O-])c1ccc2nc(SCc3cccc4ccccc34)sc2c1	-1.5
COc1cc(NC(=O)c2ccccc2Br)c2ncccc2c1	-3.3
CC1=NN(c2ccc(C)cc2)C(=O)/C1=C\c1ccc2c(c1)OCO2	14.2
COC(=O)c1cccc2c1NC(=O)C2=O	-7.2
Cc1sc(N/N=C/c2ccccc2)nc1-c1ccccc1	-11.2
COc1ccc(/C=C2\C(=O)NC(=S)N(c3cccc(Br)c3)C2=O)cc1[N+](=O)[O-]	9.4
COC(=O)C1=C(C)NC2=C(C(=O)c3ccccc32)C1c1ccc(-c2ccc([N+](=O)[O-])cc2C)o1 (centres undefined)	10.7
Cc1ccccc1NC(=O)C(=O)NCCC1=CCCCC1	-6.4
COc1ccc(Cl)cc1C(=O)NCc1ccco1	-1.3
CCN(CC)c1ccc(C(=O)NCC(=O)OC)cc1	0.8
CCCCCCOc1ccc(N2C(=O)CC(N3CCN(c4ccc(F)cc4)CC3)C2=O)cc1 (centres undefined)	-2.8
Cc1cc(NC(=O)c2ccc(-c3cccc(Cl)c3)o2)ccc1NC(=O)c1ccco1	1.3
COc1ccc(CCNC(=O)c2ccccc2)cc1OC	2.5
CC1=C(C(=O)OC2CCCCC2)C(c2ccc3c(c2)OCO3)C2=C(CCCC2=O)N1 (centres undefined)	-12.5
CN(C)C1=C(C#N)C(C2CCCCC2=O)c2c(c3ccccc3n2C)N1c1ccc([N+](=O)[O-])cc1 (centres undefined)	27.5
CS(=O)(=O)c1ccc2nc(NC(=O)c3cc(-c4cccc(Br)c4)nc4ccccc34)sc2c1	-3.4
COc1ccc(Br)cc1/C=N/OC(=O)c1ccccc1	3
CN1CCc2c(sc3[nH]c(=S)n(CCc4ccccc4)c(=O)c23)C1	-5.1

Structure (SMILES)	displacement [%]
Nc1cccc(C(=O)Nc2ccccc2)c1	7
COc1ccc(C(=O)Nc2cccc(-c3nc4ccccc4s3)c2C)cc1	0.9
O=C(c1ccccc1F)N1CCN(c2ccc([N+](=O)[O-])cc2Cl)CC1	4.9
COc1ccc(Cl)cc1C(=O)Nc1cc(C)on1	10
Cc1ccc(C(O)C#CC(O)(c2ccccc2)c2ccccc2)o1 (centres undefined)	5
CN1CCN(C(=O)c2ccccc2Oc2ccccc2)CC1	-6.3
Cc1cc(=O)oc2c1c(C)nn2-c1cc(Cl)ccc1Cl	3.2
Cc1c(NC(=O)C23CC4CC(CC(C4)C2)C3)c(=O)n(-c2ccccc2)n1C	-12
Cc1cccc(OCC(=O)Nc2ccc(Nc3ccccc3)cc2)c1	-17.2
C=CCn1c(Cc2ccccc2)n[nH]c1=S	-5.1
COc1ccc2ccccc2c1C1C(C(C)=O)=C(C)N=c2s/c(=C\c3cccc(O)c3)c(=O)n21 (centres undefined)	-12.1
CS(=O)(=O)N(CC(=O)NCCc1ccccc1)c1ccc(Br)cc1	-9.6
COc1ccc(N(CC(=O)Nc2ccc(C)cc2)S(C)(=O)=O)cc1	2.3
CN(C)c1ccc(C(=O)NCc2ccccn2)cc1	-13
CCC(C)(C)C1CCc2c(sc(NC(=O)OC)c2C(N)=O)C1 (centres undefined)	-1.6
CCOC(=O)/C(=C/c1cc2ccccc2n1C)[N+](=O)[O-]	-3.5
O=C1NC(=O)N(c2ccccc2)C(=O)/C1=C\c1cccn1-c1ccc([N+](=O)[O-])cc1	-25.5
CCOC(=O)C(=O)Nc1ccc(NC(C)=O)cc1	-4.5
O=C1CC(NCc2ccc(Cl)cc2)C(=O)N1c1ccc(F)cc1 (centres undefined)	-4.2
CCCCOc1ccc(NC(=O)CSCC(=O)OCC)cc1	2.4
Cc1cc(C)n(-c2c(F)c(F)c(COC(=O)c3ccccc3)c(F)c2F)n1	-1.8
Cc1ccc(OCC(=O)NCc2ccc3c(c2)OCO3)c(Br)c1	-7.2

Structure (SMILES)	displacement [%]
O=C1N=C(N2CCOCC2)S/C1=C\c1ccccc1	5.8
CCOC(=O)c1ccc(N2NC(=O)/C(=C/c3ccccc3O)C2=O)cc1	16.7
COc1ccc(C2CC(=O)C3=C(C2)Nc2ccccc2NC3c2ccc(OC)c(OC)c2)cc1 (centres undefined)	-10.2
COc1ccccc1/C=N/NC(=O)CCc1c(C)n[nH]c1C	-12.8
COc1ccc(C(N)=O)cc1NC(C)=O	-8.6
O=C(CC(Nc1ccc(Br)cc1)c1ccc(F)cc1)c1ccccc1 (centres undefined)	5.7
O=C(O)c1ccccc1C(=O)NC1=NN(c2ccccc2)CC1	13
O=C(NCC1c2ccccc2CCN1C(=O)c1cccs1)C1CCCCC1 (centres undefined)	-5.4
Cc1c(OCC(N)=O)ccc2c3c(c(=O)oc12)CCC3	8.3
CC(=O)Nc1ccc(C(=O)N2CC(C)CC(C)C2)cc1 (centres undefined)	13.2
Cc1cc(C)c(S(=O)(=O)NCC2CCCO2)c(C)c1 (centres undefined)	-8
COc1ccccc1N(CC(=O)Nc1ccc(F)c(Cl)c1)S(=O)(=O)c1ccccc1	-14.3
Cc1ccc(-c2cc(C(=O)Nc3cccc(F)c3)c3ccccc3n2)o1	11.9
Cc1ccc(N2C3=[N+](CCCCC3)CC2(O)c2cccc([N+](=O)[O-])c2)cc1 (centres undefined)	12.2
COc1cccc(/C=c2\sc3nc4ccccc4n3c2=O)c1OC	19
O=C(c1ccc(Cl)cc1)N1N=C(c2ccc([N+](=O)[O-])cc2)CC1(O)C(F)(F)F (centres undefined)	4.5
O=C(CN1C(=O)c2ccccc2C1=O)Nc1nc(-c2ccccc2)cs1	-6.7
O=S(=O)(N/N=C/C=C/c1ccccc1)c1ccc(Cl)cc1	1.6
CCOC(=O)c1c(NC(=O)c2ccccc2C)sc(C(=O)Nc2ccccc2OC)c1C	-6.4
CCOC(=O)C1=C(C)N(C)C(=O)NC1c1ccc(OC)c(OC)c1OC (centres undefined)	5.1
O=C(Nc1cccc(C(F)(F)F)c1)c1cc2c(ccc3ccccc32)oc1=O	-3
Cc1cccc2sc(NC(=O)CCC(=O)O)nc12	-14.8

Structure (SMILES)	displacement [%]
CC1=C(C(=O)Nc2ccc(Cl)cc2)C(c2cccc3ccccc23)NC(=O)N1 (centres undefined)	-5.7
Cc1ccc(C(=O)N2CCN(c3ccccn3)CC2)cc1[N+](=O)[O-]	-11.5
COc1ccc(C(=O)c2ccc(N3CCCCC3)c([N+](=O)[O-])c2)cc1	-6.4
O=C(Cc1ccccc1)N1N=CCC1(O)c1ccc(Cl)cc1 (centres undefined)	-13.4
CCOc1ccc(N2C(=O)CC(N3CCC(C(N)=O)(N4CCCCC4)CC3)C2=O)cc1 (centres undefined)	-11.7
C#CCOc1ccc(/C=C2\C(=O)NC(=O)N(c3ccc(C)cc3)C2=O)cc1OCC	4.9
CC1(C)c2ssc(=S)c2-c2ccccc2N1C(=O)COc1nc2ccccc2s1	-6.4
COC(=O)c1c(NC(=O)c2ccccc2F)sc2c1CCCCC2	-4.8
COc1ccc(CC(=O)Nc2ccc(NC(=O)c3ccc(Br)cc3)cc2)cc1OC	12.9
Cc1ccc(C(=O)N2c3c(C)cccc3C(Nc3ccccc3C)CC2C)cc1 (centres undefined)	-6.8
CCn1c2ccccc2c2cc(CNCCc3cccc(F)c3)ccc21	8.5
COC(=O)C1=C(C)N(Cc2ccccc2)C(=O)/C1=C\c1cccc([N+](=O)[O-])c1	2.4
Cn1c2c(c(=O)[nH]c1=O)C(c1cccc(Cl)c1Cl)C1=C(N2)c2ccccc2C1=O (centres undefined)	14.9
Cc1ccc(S(=O)(=O)Nc2ccc(Br)cc2C(=O)c2ccccc2)cc1	14.5
O=C(Nc1ccc(I)cc1)c1ccc(Cl)cc1Cl	6.9
Cc1ccc(S(=O)(=O)N/N=C/c2ccc(OS(=O)(=O)c3ccc([N+](=O)[O-])cc3)cc2)cc1	4.8
Cc1cc(OCC(=O)Nc2cccc(Cl)c2C)ccc1Cl	1.4
O=C(Cc1ccc(F)cc1F)n1nnc2ccccc21	-6
Cc1ccc(NS(=O)(=O)c2ccc3c(c2)OCCO3)cc1	8.3
CC(=O)Nc1ccc(C(=O)Nc2ncc([N+](=O)[O-])s2)cc1	18.6
O=C(CCCN1C(=O)c2cccc3cccc(c23)C1=O)OC/C=C/c1ccccc1	6.6
COc1ccccc1C(=O)NN1C(=O)/C(=C2/C(=O)N(CC(=O)O)c3ccccc32)SC1=S	4.2

Structure (SMILES)	displacement [%]
O=C(/C=C(/O)c1ccccc1)C(=O)Nc1ccc(Br)cc1	9
Cn1c(=S)n(CCC(=O)O)c2ccccc21	-1.4
Cc1c(NC(=S)Nc2ccc(Cl)cc2)c(=O)n(-c2ccccc2)n1C	-6
O=C(Nc1cc(Cl)ccc1O)c1ccc([N+](=O)[O-])cc1	-12.5
COC(=O)C1=CN(Cc2ccc(C)cc2)C=C(C(=O)OC)C1c1ccc(F)c(F)c1	9.4
CCC(C)c1ccccc1OCC(=O)Nc1cc(C(=O)O)cc(C(=O)O)c1 (centres undefined)	12.6
CCCCOC(=O)Cn1c(=N)n(CCN(CC)CC)c2ccccc21	-12.3
CC(=O)Oc1ccc(-c2cccc(C(=O)NCCO)c2)cc1	9.9
Cc1cc(/C=N/NC(=O)CC#N)c(C)n1-c1cc(Cl)cc(Cl)c1	-17.8
Cc1cc(Br)ccc1S(=O)(=O)n1nnc2ccccc21	3.9
Cc1cc(C=O)c(C)n1-c1ccc(Br)c2ccccc12	20.5
O=C1C=CC(=O)C(c2cccc(C(F)(F)F)c2)=C1	14.9
CC(NC(=O)c1ccccc1Cl)C(=O)O (centres undefined)	8.1
C(=NN1CCN(Cc2ccccc2)CC1)c1ccccc1	11.1
O=C1CC(NCCc2ccccc2)C(=O)N1CCc1ccccc1 (centres undefined)	5.1
O=C(O)CCCN1C(=O)/C(=C/c2ccc3c(c2)OCO3)SC1=S	6.1
COc1ccc(Cl)cc1C(=O)Nc1sc(C)c(C)c1C#N	11
Cc1ccc2c(Cl)c(C(=O)Nc3nc4ccc(Br)cc4s3)sc2c1	19.9
COc1ccc(OC)c(N=Cc2c(O)n(-c3ccccc3C)c(=O)[nH]c2=O)c1	7.3
CCCCOC(=O)c1ccc(NC(=O)c2cc(I)ccc2Cl)cc1	10.6
CN(C)c1ccc(/C=N/N=C2/NC(=O)C(Cc3ccc(Cl)cc3Cl)S2)cc1 (centres undefined)	1.8
